Here are results for 48 compounds from the supplement of paper PMC12340641.

Whole data set: some 1,000 compounds, median “relative growth recovery (pomalidomide 10 uM = 100%, DMSO = 0%)” near -1.6, cut for the highest 2% near 21. Some of the results follow.

For the assay, the system named is HEK293FT dCK*-IKZF1. Briefly: relative growth recovery (pomalidomide 10 uM = 100%, DMSO = 0%); higher = more growth rescue (IKZF1 fusion degradation). Particulars: compound concentration: 5 uM; AraC concentration: 0.3 uM; overnight pretreatment + 4 days AraC. On the procedure: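 Growth recovery screen of the molecular-glue-like (Specs) library. HEK293FT cells expressing a dCK*-IKZF1 fusion (primary) or dCK* alone (counter) were pretreated overnight with compound at 5 uM, then given 0.3 uM AraC for 4 days. Hoechst nuclei were counted by imaging. Primary: normalised to pomalidomide (100%) and DMSO (0%), mean of 2 replicates. Counter: normalised to no-AraC (100%) and AraC+DMSO (0%), single replicate.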
As to `COc1ccc(Cl)cc1NC(=O)CSc1nnc2c(n1)[nH]c1ccc(F)cc12`, the relative growth recovery was -1.31%. Turning to `Cc1cnc(Nc2cccc(C3CCN(C(=O)C4(C)CCCCC4)CC3)n2)s1`, the relative growth recovery was -9.22%. `O=C(COc1ccc(Cl)cc1Cl)Nc1ccc(S(=O)(=O)Nc2ncccn2)cc1`: the relative growth recovery was -4.71%.

For `COC(=O)C(c1cccc(Nc2ncc(C)s2)n1)C1CCN(C(=O)[C@H](CC(C)C)NC(=O)OC(C)(C)C)CC1` (stereo partly drawn), the relative growth recovery was -0.715%. For the compound `COc1cc(NS(=O)(=O)c2ccc(NC(=O)c3ccc([N+](=O)[O-])cc3)cc2)nc(OC)n1`, the relative growth recovery was -1.01%. `CNC(=O)c1cnc(Nc2cccc(C3CCN(C(=O)C4CCCCC4)CC3)n2)s1`: the relative growth recovery is -7.04%. As to `COCC(=O)N1CCCC(Cc2ccc(Nc3ncc(-c4ccc(F)cc4)s3)nc2)C1` (stereo not drawn), the relative growth recovery is -9.28%. On to `C[C@@]1(O)CNCC[C@H]1n1cnc2c(N)nc(N)nc21`, for which the relative growth recovery was -7.17%. For `O=C(C1CNCCO1)N1CCC(c2cccc(Nc3ncc(-c4ccccc4)s3)n2)CC1` (stereo not drawn) the value was 2.58%.

In the case of `Cc1cnc(Nc2cccc(C3CN(C(=O)C4C5C6CCC(C6)C45)CCO3)n2)s1` (stereo not drawn), the relative growth recovery was -6.94%. In the case of `CC(C)CC(=O)N1CCCC1c1csc(Nc2ccccn2)n1` (stereo not drawn), the relative growth recovery stood at 2.83%. For the compound `O=C(CSc1nnc2c(n1)[nH]c1ccc(F)cc12)Nc1cccc(F)c1`, the relative growth recovery is -0.995%. Consider `COc1cc(OC)cc(C(=O)Nc2ccc(S(=O)(=O)Nc3ncccn3)cc2)c1`, for which the relative growth recovery was -4.95%. `Cc1cnc(NC(=O)CN2CCC(c3cccc(Nc4ncc(C)s4)n3)CC2)s1`: the relative growth recovery is -13.8%. Regarding `Cc1cc(OCC(=O)Nc2ccc(S(=O)(=O)Nc3ccccn3)cc2)cc(C)c1Cl`, the relative growth recovery was -6.37%. For the compound `Cc1cc(NS(=O)(=O)c2ccc(NC(=O)c3oc4ccccc4c3C)cc2)nc(C)n1`, the relative growth recovery was -1.21%.

In the case of `O=S(=O)(Cc1ccccc1)Nc1ccc(S(=O)(=O)Nc2ncccn2)cc1`, the relative growth recovery was -0.185%. With `CC(C)N(C(=O)CN1CCC(Cc2cccc(Nc3nccs3)n2)CC1)C1CCCCC1`, the relative growth recovery was -3.21%. For `Cc1cc(C)nc(NS(=O)(=O)c2ccc(NC(=O)c3ccccc3OC(C)C)cc2)n1`, the relative growth recovery is -2.05%. As to `CCN(CC)C(=O)CN1CCC(c2cccc(Nc3nc(C)c(C)s3)n2)CC1`, the relative growth recovery is -0.815%. With `Cc1cnc(Nc2cccc(C3CN(C(=O)C4CCOC4)CCO3)n2)s1` (stereo not drawn), the relative growth recovery was -8.06%. Consider `O=C(c1cccc2cccnc12)N1CCCC1c1cccc(Nc2nccs2)n1` (stereo not drawn), for which the relative growth recovery was -1.58%.

On to `Cc1ccn2cc(C(=O)N3CCCC3c3cccc(Nc4nc(C)c(C)s4)n3)nc2c1` (stereo not drawn), for which the relative growth recovery worked out at 39.7%. Regarding `Cc1cc(OCC(=O)Nc2ccc(S(=O)(=O)Nc3ncccn3)cc2)ccc1C(C)C`, the relative growth recovery was 9.55%. Take `CCN(CC)C(=O)CN1CCC(c2cccc(Nc3nccs3)n2)CC1`: the relative growth recovery amounted to 3.58%. As for `Cc1cccc(OCCCC(=O)Nc2ccc(S(=O)(=O)Nc3ncccn3)cc2)c1`, the relative growth recovery is 1.47%.

For `Cc1ccnc(NS(=O)(=O)c2ccc(NC(=O)COc3ccc(Cl)cc3)cc2)n1`, the relative growth recovery is -4%. For `Cc1cnc(Nc2cccc(C3CCN(C(=O)C4CCC(=O)N4)CC3)n2)s1` (stereo not drawn), the relative growth recovery is -19.4%. For `Cc1ccc(S(=O)(=O)Nc2ccc(S(=O)(=O)Nc3ncccn3)cc2)cc1`, the relative growth recovery was -3.26%. As to `O=C(C1CCCCC1)N1CCOC(c2cccc(Nc3ncc(Cc4ccc(F)cc4)s3)n2)C1` (stereo not drawn), the relative growth recovery was -1.23%. With `Cc1cnc(Nc2cccc(C3CCN(C(=O)C4CCCC4)CC3)n2)s1`, the relative growth recovery was -11%.

Turning to `COc1ccc(OCC(=O)Nc2ccc(S(=O)(=O)Nc3ccccn3)cc2)cc1`, the relative growth recovery was -0.725%. Turning to `CCC(C)(C)C(=O)Nc1ccc(S(=O)(=O)Nc2ncccn2)cc1`, the relative growth recovery is -5.08%.

On to `Cc1ccc(CC(=O)Nc2ccc(S(=O)(=O)Nc3ncccn3)cc2)cc1`, for which the relative growth recovery is -14.8%.

Regarding `COc1ccccc1CCC(=O)N1CCOC(c2cccc(Nc3ncc(C)s3)n2)C1` (stereo not drawn), the relative growth recovery came out at 10.8%.

As for `CCCc1cnc(Nc2cccc(C3CCN(C(=O)[C@@H]4CCCN4C(=O)OC(C)(C)C)CC3)n2)s1`, the relative growth recovery was -17.1%. With `O=C(c1[nH]nc2c1CCCCC2)N1CCCC1c1cccc(Nc2nccs2)n1` (stereo not drawn), the relative growth recovery was -20.1%. As to `Cc1cc(C)nc(NS(=O)(=O)c2ccc(NC(=O)COc3c(C)cccc3C)cc2)n1`, the relative growth recovery was -12.1%. As to `Cc1cc(C)nc(NS(=O)(=O)c2ccc(NCc3cc(Cl)ccc3O)cc2)n1`, the relative growth recovery is 0.815%. Take `O=C(C1CCCCC1)N1CCC(c2cccc(Nc3ncc(Cc4ccccc4)s3)n2)CC1`: the relative growth recovery was -3.1%. Take `Cc1cc(C)nc(NS(=O)(=O)c2ccc(NC(=O)c3ccc(C)c(C)c3)cc2)n1`: the relative growth recovery was -1.41%. For the compound `O=C(Nc1ccc(S(=O)(=O)Nc2ccccn2)cc1)c1cccnc1`, the relative growth recovery turned out to be 0.275%. Consider `Cc1cnc(Nc2cccc(CC3CCN(C(=O)Cn4c(CC(C)C)nc5ccccc54)CC3)n2)s1`, for which the relative growth recovery is -3.17%. For the compound `Cc1nc(Nc2cccc(C3CCCN3C(=O)CN3C(=O)NC(C)(C)C3=O)n2)sc1C` (stereo not drawn), the relative growth recovery amounted to 6.9%. In the case of `Cc1cc(NS(=O)(=O)c2ccc(NC(=O)C3COc4ccccc4O3)cc2)nc(C)n1` (stereo not drawn) it was -6.75%; in that of `Cc1cnc(Nc2cccc(C3CCN(C(=O)C4CCN(C(C)C)CC4)CC3)n2)s1`, 2.37%.

In the case of `O=C(/C=C/c1ccccc1Cl)Nc1ccc(S(=O)(=O)Nc2ncccn2)cc1`, the relative growth recovery was -17.9%. In the case of `Cc1nc(Nc2cccc(C3CN(C(=O)CCc4c(C)n[nH]c4C)CCO3)n2)sc1C` (stereo not drawn) it was -0.835%.
